From patent US12545699B2, “Bivalent LECA inhibitors targeting biofilm formation of Pseudomonas aeruginosa” (HELMHOLTZ-ZENTRUM FÜR INFEKTIONSFORSCHUNG GMBH, priority 2019, dated 2026)
For at least one compound, name, drawing or mass did not settle the structure.

Target: T1, LecA (Pseudomonas aeruginosa, UniProt Q05097)
T1 construct: made in house
Assay: surface plasmon resonance (SPR) direct binding to immobilised LecA
Details: Table 4, three independent experiments
Experimental: All experiments were performed on a BIACORE X100 instrument (GE Healthcare) at 25° C. and a flow rate of 10 μL min^−1. […] LecA was dissolved in 10 mM sodium acetate pH 4.5 (100 μg mL^−1) and injected over the activated chip surface on channel 2 (contact time of 540 s) until the response of ˜4000 RU was reached. Excess free amine groups were capped with an injection of 1 M ethanolamine (contact time 540 s). Bivalent compounds were dissolved in 100% DMSO and subsequently diluted to required concentrations in a running buffer (10 mM phosphate buffer pH 7.4, 2.7 mM KCl, 137 mM NaCl, 100 μM CaCl2, 0.05% Tween 20, 5% DMSO). The bivalent analytes were subjected to single-cycle kinetics analyses (contact time of 120 s and dissociation time of 120 s) consisting of injections of the analytes at 0, 10, 50, 100, and 200 nM over the immobilised-LecA. The chip surface was regenerated by 5× injections of 100 μM 4-nitrophenyl-β-D-galactose (contact time of 120 s). KD determination was performed using BIACORE X100 evaluation software (version 2.0) by applying 1:1 binding model to fit the experimental data. • [1] H. E. Gottlieb, V. Kotlyar, A. Nudelman, J. Org. Chem. 1997, 62, 7512-7515. • [2] M. Seligman, J. Biol. Chem. 1952, 195, 239-249. • [3] S. T. Xue, W. Y. He, L. L. Ma, H. Q. Wang, B. Wang, G. H. Zheng, X. Y. Ji, T. Zhang, Y. H. Li, J. D. Jiang, et al., Molecules 2013, 18, 3789-3805. • [4] Y. Li, H. Mo, G. Lian, B. Yu, Carbohydr. Res. 2012, 363, 14-22. • [5] F. Yang, F. Xie, Y. Zhang, Y. Xia, W. Liu, F. Jiang, C. Lam, Y. Qiao, D. Xie, J. Li, et al., Bioorganic Med. Chem. Lett. 2017, 27, 2166-2170. Synthesis Schemes and Results of Biophysical Assays

T1 sequence (Q05097 whole entry): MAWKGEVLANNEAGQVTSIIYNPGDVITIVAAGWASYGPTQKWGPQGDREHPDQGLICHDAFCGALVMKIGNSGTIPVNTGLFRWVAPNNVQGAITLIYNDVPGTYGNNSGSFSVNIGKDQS

| Compound | Kd [nM] |
| --- | --- |
| O=C(/C=C/c1ccc(O[C@@H]2O[C@H](CO)[C@H](O)[C@H](O)[C@H]2O)cc1)Nc1ccc(OCCOc2ccc(NC(=O)/C=C/c3ccc(O[C@@H]4O[C@H](CO)[C@H](O)[C@H](O)[C@H]4O)cc3)cc2)cc1 [Compound I18] | 40.7 ± 3.01 |
| O=C(CCc1ccc(O[C@@H]2O[C@H](CO)[C@H](O)[C@H](O)[C@H]2O)cc1)Nc1ccc(OCCOc2ccc(NC(=O)CCc3ccc(O[C@@H]4O[C@H](CO)[C@H](O)[C@H](O)[C@H]4O)cc3)cn2)nc1 [Compound M31] | 9.92 ± 0.14 |
| O=C(CCc1ccc(O[C@@H]2O[C@H](CO)[C@H](O)[C@H](O)[C@H]2O)cc1)Nc1ccc(OCOc2ccc(NC(=O)CCc3ccc(O[C@@H]4O[C@H](CO)[C@H](O)[C@H](O)[C@H]4O)cc3)cc2)cc1 [Compound H30] | 15.3 ± 0.57 |
| O=C(CCc1ccc(O[C@@H]2O[C@H](CO)[C@H](O)[C@H](O)[C@H]2O)cc1)Nc1ccc(OCCOc2ccc(NC(=O)CCc3ccc(O[C@@H]4O[C@H](CO)[C@H](O)[C@H](O)[C@H]4O)cc3)cc2)cc1 [Compound I30] | 23.1 ± 0.32 |
| O=C(CCc1ccc(O[C@@H]2O[C@H](CO)[C@H](O)[C@H](O)[C@H]2O)cc1)Nc1ccc(OCCCOc2ccc(NC(=O)CCc3ccc(O[C@@H]4O[C@H](CO)[C@H](O)[C@H](O)[C@H]4O)cc3)cc2)cc1 [Compound J30] | 18.5 ± 1.5 |
| O=C(/C=C/c1ccc(O[C@@H]2O[C@H](CO)[C@H](O)[C@H](O)[C@H]2O)cc1)Nc1ccc(OCCCOc2ccc(NC(=O)/C=C/c3ccc(O[C@@H]4O[C@H](CO)[C@H](O)[C@H](O)[C@H]4O)cc3)cc2)cc1 [Compound J18] | 156 ± 37.6 |
| O=C(CCc1ccc(O[C@@H]2O[C@H](CO)[C@H](O)[C@H](O)[C@H]2O)cc1)Nc1ccc(Oc2ccc(NC(=O)CCc3ccc(O[C@@H]4O[C@H](CO)[C@H](O)[C@H](O)[C@H]4O)cc3)cc2)cc1 [Compound G30] | 22.1 ± 0.32 |
| O=C(/C=C/c1ccc(O[C@@H]2O[C@H](CO)[C@H](O)[C@H](O)[C@H]2O)cc1)Nc1ccc(Oc2ccc(NC(=O)/C=C/c3ccc(O[C@@H]4O[C@H](CO)[C@H](O)[C@H](O)[C@H]4O)cc3)cc2)cc1 [Compound G18] | 67.3 ± 9.38 |
| O=C(CCc1ccc(O[C@@H]2O[C@H](CO)[C@H](O)[C@H](O)[C@H]2O)cc1)Nc1ccc(OCCCCOc2ccc(NC(=O)CCc3ccc(O[C@@H]4O[C@H](CO)[C@H](O)[C@H](O)[C@H]4O)cc3)cc2)cc1 [Compound K30] | 23.1 ± 11 |
| O=C(/C=C/c1ccc(O[C@@H]2O[C@H](CO)[C@H](O)[C@H](O)[C@H]2O)cc1)Nc1ccc(OCOc2ccc(NC(=O)/C=C/c3ccc(O[C@@H]4O[C@H](CO)[C@H](O)[C@H](O)[C@H]4O)cc3)cc2)cc1 [Compound H18] | 37.6 ± 11.2 |
